Over roughly 33,000 sequences, “E-score (-0.5 to 0.5)” has its median near -0.043; the highest 2% begin near 0.37. Some of the results follow.
Target: T1, Upc2 (UniProt Q12151)
T1 sequence: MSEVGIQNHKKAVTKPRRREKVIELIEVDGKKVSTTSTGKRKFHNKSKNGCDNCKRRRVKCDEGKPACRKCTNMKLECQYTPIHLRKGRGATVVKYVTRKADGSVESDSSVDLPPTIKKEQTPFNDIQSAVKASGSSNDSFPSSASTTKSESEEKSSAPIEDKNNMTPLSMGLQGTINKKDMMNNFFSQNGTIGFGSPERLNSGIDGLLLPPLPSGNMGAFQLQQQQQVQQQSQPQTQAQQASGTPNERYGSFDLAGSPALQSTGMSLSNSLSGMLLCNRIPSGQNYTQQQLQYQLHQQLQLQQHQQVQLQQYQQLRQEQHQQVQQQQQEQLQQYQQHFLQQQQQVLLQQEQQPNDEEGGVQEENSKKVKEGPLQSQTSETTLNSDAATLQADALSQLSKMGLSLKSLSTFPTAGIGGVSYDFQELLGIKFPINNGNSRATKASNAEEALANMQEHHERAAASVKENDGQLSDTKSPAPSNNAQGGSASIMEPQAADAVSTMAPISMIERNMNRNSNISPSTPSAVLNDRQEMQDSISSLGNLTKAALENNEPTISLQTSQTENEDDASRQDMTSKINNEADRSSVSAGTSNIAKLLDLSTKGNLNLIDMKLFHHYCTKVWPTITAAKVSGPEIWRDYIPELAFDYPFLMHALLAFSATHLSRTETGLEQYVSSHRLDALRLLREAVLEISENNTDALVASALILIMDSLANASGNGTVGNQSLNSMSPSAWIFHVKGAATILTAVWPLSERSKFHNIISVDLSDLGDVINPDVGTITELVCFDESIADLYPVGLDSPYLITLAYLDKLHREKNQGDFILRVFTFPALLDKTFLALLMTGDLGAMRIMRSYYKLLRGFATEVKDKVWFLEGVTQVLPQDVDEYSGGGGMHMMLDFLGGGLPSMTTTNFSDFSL
Experiment: PBM E-score (8-mer binding enrichment) (E-score (-0.5 to 0.5)); higher = stronger / more preferred TF binding; most listed sequences are background and not binding sites
Settings: protein concentration: 200 nM; construct: GST-full length
Description: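 Universal 'all 10-mer' protein binding microarrays (Agilent AMADID 015681) probed with GST-tagged S. cerevisiae TFs (full-length or DBD) made by in vitro transcription/translation (PURExpress), about 100-200 nM. Bound TF was detected with fluorescent anti-GST. Each ungapped 8-mer (which stands for itself and its reverse complement) is scored by the PBM enrichment score (E-score), a modified Wilcoxon-Mann-Whitney statistic from -0.5 to +0.5, computed with the Universal PBM Analysis Suite. Scale: above 0.35 generally sequence-specific binding.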

Row | Sequence | PBM E-score
1 | AGGTGCGG | -0.112
2 | GGTGCACA | -0.103
3 | ATCGAAAG | -0.0276
4 | AAGACAGA | 0.0529
5 | AAACATTT | 0.013
6 | GTTCGAAC | 0.212
7 | CTTAAGGA | -0.216
8 | ATGCTCTC | -0.0987
9 | ACGTGGCG | 0.0238
10 | AGCCCGTC | -0.186
11 | AAAACGAA | 0.283
12 | CGGATGCC | 0.0567
13 | AATATTGG | -0.0635
14 | AATGGTTG | -0.0265
15 | AGGCCGCG | -0.076
16 | CAAACTCG | 0.104
17 | AGTATGAG | -0.125
18 | CGTTAGAC | 0.101
19 | ATTCGCAC | 0.0659
20 | GATAGAGA | -0.0427
21 | ACCGGAAT | -0.105
22 | CAAATGAG | -0.0504
23 | GAACGGAA | 0.207
24 | CCCTGGAC | -0.217
25 | GCCTATTA | -0.0629

Row | Sequence | PBM E-score
26 | CACGACAG | 0.0499
27 | CATGAACA | 0.00931
28 | AATTCTCC | -0.19
29 | GCCACCCC | -0.114
30 | ACAGACGT | -0.13
31 | CACATATA | -0.0703
32 | TGAAGTCA | -0.0978
33 | CATTGATA | -0.156
34 | TCGTTTCA | 0.406
35 | CGAGTCGA | 0.272
36 | ACATTGCC | -0.154
37 | CGGGAGAG | -0.0503
38 | AGCGAATC | 0.228
39 | GATACTCC | -0.0801
40 | GCCTAGAC | 0.0469
41 | CAGTATAA | 0.191
42 | AAACAGTC | 0.0141
43 | CTCGCAAC | 0.106
44 | GCCTACGC | -0.153
45 | AATAATAG | -0.0926
46 | CATCGCGC | 0.0671
47 | AAAGTATG | -0.147
48 | CAAAAAAG | -0.053
49 | ACGTGGTA | 0.074
50 | GATACCAA | -0.00349

Row | Sequence | PBM E-score
51 | CTTGACGA | -0.0346
52 | ACGTGGTC | -0.0145
53 | AGTTAATG | -0.0415
54 | ATTAATCC | -0.00773
55 | CCCACGCA | -0.0804
56 | TCTGCTAA | -0.132
57 | ACACTTAA | 0.161
58 | AACCCCGT | 0.129
59 | ATGTAGGG | -0.205
60 | ACTGGATA | -0.0304
61 | CTTGCTAC | 0.0254
62 | TAGAGATA | -0.0296
63 | CCGACGTC | 0.0845
64 | ACTCCTCT | -0.183
65 | CTATTCTC | -0.213
66 | CTGGGCAC | 0.00195
67 | CATACTAA | 0.0441
68 | ACTGATAA | -0.12
69 | CGCAGCAG | -0.0376
70 | GTGCCGAA | -0.0249
71 | AGGCAGGA | -0.138
72 | AAGAACAG | -0.0861
73 | AGTTGTAC | 0.153
74 | CGAGAGTC | 0.115
75 | CGGCTTAC | 0.0384

Row | Sequence | PBM E-score
76 | AAGGAAAT | -0.0337
77 | ATCTGTCC | -0.26
78 | AGGAGGGG | -0.2
79 | AACTCGCA | 0.159
80 | GCACATTA | -0.028
81 | AAATTGAA | -0.157
82 | CTCACGAA | 0.0214
83 | CCTAGCCA | -0.139
84 | ATATGGGA | -0.17
85 | AAGAGAAC | 0.21
86 | CAAAGAAG | 0.0356
87 | CCATGGAG | -0.327
88 | GACAGCAC | 0.0344
89 | GACAGAAA | 0.133
90 | AGCGGGTC | -0.0751
91 | TATTATGA | 0.0109
92 | GCCTGCCC | -0.234
93 | AACCGCGG | 0.0911
94 | CTGAGTTA | -0.176
95 | CGGGAGGC | -0.232
96 | ATTGGATC | -0.187
97 | TGGTACAA | -0.195
98 | ACTAATCC | -0.0565
99 | CACTTTGA | -0.16
100 | CGAATTTA | 0.165

Row | Sequence | PBM E-score
101 | GCAATGTA | 0.15
102 | ACCCCTGC | -0.412
103 | TAGGCATA | -0.146
104 | GCATTGGC | -0.243
105 | AAGCGCCT | -0.223
106 | GAGGGCCC | -0.156
107 | CATGTTAG | -0.12
108 | ATGATTTG | -0.0654
109 | AGCCGGCA | -0.134
110 | AGAGCGAT | -0.0429
111 | ATCTCAGG | -0.231
112 | AGCCAACA | -0.098
113 | ACCAAAGC | -0.0372
114 | AGGGTGGG | 0.0134
115 | ACGCGTGC | 0.186
116 | ATCACGTA | 0.247
117 | GCCACACC | -0.203
118 | ATTTGTAG | -0.154
119 | GCACGTCA | -0.113
120 | CCTACAAC | -0.0791
121 | CCATACAC | 0.00869
122 | AGCGCGAG | 0.0101
123 | AAGCCACG | 0.0648
124 | AAATTGGC | -0.0996
125 | AACGGCTG | 0.143

Row | Sequence | PBM E-score
126 | ATTCGCAG | -0.0475
127 | ACAAGGAG | -0.0353
128 | AAGTTAGA | -0.113
129 | ACAAGATG | -0.154
130 | CGAGATAG | 0.122
131 | TAATCCGA | 0.0736
132 | CTTAAAAG | -0.0494
133 | AGGCTCAT | -0.141
134 | ACCAGAAA | 0.0774
135 | CCCTCCAA | -0.0585
136 | ACTATCTG | -0.112
137 | AAGTGCAT | -0.219
138 | GCGTTAAC | 0.253
139 | CTTTATGC | 0.0479
140 | ACATCGAG | 0.029
141 | TTGTAAAA | 0.0751
142 | ACAGAAAT | 0.0545
143 | TCGAAGAA | -0.105
144 | ACCTGTAA | 0.228
145 | CCCAGTAA | -0.108
146 | GCCCGTGA | -0.0912
147 | GCGAGCCC | 0.122
148 | AATAGTCG | 0.126
149 | CGGTAACA | 0.0639
150 | CCTAGATA | -0.0107

Row | Sequence | PBM E-score
151 | AGCTCATA | -0.169
152 | ACACAACT | -0.00132
153 | AGCATTGA | -0.138
154 | AGGGAGCA | -0.196
155 | TTCGTAAA | 0.459
156 | CTGTAGGA | 0.0711
157 | AAGAGGCG | 0.0206
158 | AGAGCCAC | -0.0191
159 | AAGCACTT | -0.0533
160 | GCCTAGCC | -0.203
161 | CGTGACCA | -0.26
162 | CTAATGAG | -0.0718
163 | ATGTTACC | 0.0421
164 | CCGCACGA | 0.119
165 | ATAGCACG | 0.0151
166 | AGTGCGCG | -0.108
167 | GTGATCAA | -0.096
168 | GTGGACTA | -0.0869
169 | GGCAGGCA | -0.372
170 | CCTCAAGC | -0.206
171 | AAGCGGTG | -0.0225
172 | CAAATAAA | 0.0916

From the supplement of paper PMC3334620
